Source: PubChem BioAssay AID761 (NMMLSC, 2007)
Hit rate of the full screen: of about 190,000 compounds, about 400 (0.21%) were called active. The inconclusive results got no clear call from the source; some entries with a clear call stand among them for comparison.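 How the source made its calls: active means percent activity GTP binding at least 20 points away from the 100% baseline, either down as inhibitor or up as activator; inconclusive means compound flagged as likely green fluorescent from well-wide comparison; inactive means the rest.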

The molecules below were run against Cell division control protein 42 homolog (Homo sapiens) (UniProt P60953) (assay: wildtype Cdc42 fluorescent GTP binding changes, either direction – biochemical, multiplex bead flow cytometry, Bodipy-GTP, primary screen (AID 761;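 further: median bead fluorescence of bound Bodipy-FL-GTP at 100 nM; 0% = excess unlabeled GTP control and 100% = no compound control; below 100% means less GTP binding so inhibitor and above means activator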)). Conditions: GST-Cdc42 beads, at 10 µM, actives lie on both sides.
UniProt P60953, sequence (P60953 whole entry, looked up): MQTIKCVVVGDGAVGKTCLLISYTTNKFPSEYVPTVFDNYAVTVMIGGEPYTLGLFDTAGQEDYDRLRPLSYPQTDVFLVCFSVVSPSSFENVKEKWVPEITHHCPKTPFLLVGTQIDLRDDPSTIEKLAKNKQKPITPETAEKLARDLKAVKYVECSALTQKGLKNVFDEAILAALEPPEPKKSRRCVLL

Compound	percent activity (GTP binding)
COc1cc2c(cc1NC(=O)CN1CCN(S(=O)(=O)c3ccc(F)cc3)CC1)oc1ccccc12	inconclusive: 107%
Cc1ccc(S(=O)(=O)CCC(=O)OC(C)C(=O)c2c(C)[nH]c3ccccc23)cc1 (centres undefined)	inactive: 103%
O=C(Nc1c(F)cc(F)cc1Br)c1ccco1	inconclusive: 104%
CCOC(=O)Cc1cnc(N)s1	inactive: 94%
COc1ccccc1-c1ccc(SCC(=O)NCCc2ccccc2)nn1	inconclusive: 93%
CCOc1ccc(NC(=O)NC(C)CC)cc1 (centres undefined)	inconclusive: 96%
COc1ccc(CN(CC2CCCO2)C(=O)c2cc3sccc3n2C)c(OC)c1 (centres undefined)	inactive: 95%
O=C(NNC1OC(CO)C(O)C(O)C1O)c1cccnc1 (centres undefined)	inactive: 96%
Cc1ccc(-c2nn(-c3ccccc3)cc2NC(=O)CCl)cc1	inactive: 94%
CC1=CC(=C(C#N)C#N)C=C(C)N1CCC(C)C	inactive: 96%
CCCn1c(=N)c(C(=O)NCc2ccc3c(c2)OCO3)cc2c(=O)n3cccc(C)c3nc21	inconclusive: 85%
Cc1nn(C)cc1/C=N/NC(=O)c1ccc2c(c1)OCO2	inconclusive: 111%
CCOc1cc(/C=C2\C(=O)N(Cc3ccc(C)cc3)C(C)=C2C(=O)OC)ccc1O	inconclusive: 106%
COc1ccc(OC)c(NC(=O)CN(C)S(=O)(=O)c2ccc(Cl)cc2)c1	inactive: 97%
CCc1ccc(C2NC(=S)NC3=C2C(=O)CC(C)(C)C3)cc1 (centres undefined)	inactive: 106%
CCNC(=O)COC(=O)c1ccc(S(=O)(=O)N2CCCCCC2)cc1	inconclusive: 108%
COc1ccccc1-n1cc([C@@H]2C[C@H]3CN(c4ccccc4)C(=O)[C@]34CCCN24)cn1	inconclusive: 136%
O=C(Cn1cnc2ccccc2c1=O)NCCC(=O)Nc1ccc2c(c1)OCCO2	inconclusive: 105%
COc1cccc(CNC(=O)C2CCN(S(=O)(=O)c3ccc4c(c3)CCC(=O)N4)CC2)c1	inconclusive: 89%
Cc1ccc(NC(=S)NNC(=O)c2cn(C)nc2C)cc1	inactive: 118%
COc1ccc(CC(=O)NNC(=O)c2ccncc2)cc1	inactive: 98%
CCC(COC)NCc1cn(-c2ccc(OC)cc2)nc1-c1cccc(F)c1 (centres undefined)	inactive: 98%
Cc1sc(NC(=O)/C=C/c2ccc(C(C)C)cc2)c(C#N)c1C	inconclusive: 97%

Compound	percent activity (GTP binding)
CC(=O)C(Sc1ncnc2sc3c(c12)CCCC3)C(C)=O	inconclusive: 94%
COc1ccc(OC)c(NC(=O)c2ccno2)c1	inactive: 96%
O=C1N(Cc2cccnc2)C[C@@H]2C[C@@H](c3ccc4nsnc4c3)N3CCC[C@@]123	inactive: 98%
O=[N+]([O-])c1cc(Cc2ccccc2)cc(C=Nc2ccc(N3CCOCC3)cc2)c1O	active: 78%
CSc1nc2ccccc2cc1/C=C(\C#N)c1ccc(Cl)c(Cl)c1	inconclusive: 92%
O=c1c(/C=N/OCc2ccc(Cl)cc2Cl)c[nH]n1-c1cccc(Cl)n1	inactive: 89%
COCc1cc(C)nc(N/N=C/c2ccc(-c3ccc(C(=O)O)c(Cl)c3)o2)c1C#N	active: 73%
COc1ccc2c(CC(=O)OCC(=O)Nc3ccccc3[N+](=O)[O-])coc2c1	inconclusive: 95%
CCOc1ccc(NC(=O)c2ccco2)c([N+](=O)[O-])c1	inconclusive: 106%
CC(=O)Nc1ccc(N2CCCC2)cc1	inconclusive: 104%
CC(/C=N/NC(=O)c1ccncc1)=C\c1ccco1	inactive: 99%
CCCCCC(=O)NCc1c(C(F)(F)F)nn(C)c1N1CCOCC1	inactive: 99%
COc1cccc(/C(O)=C/c2nc3ccc(C(=O)NCCc4ccc(Cl)cc4)cc3[nH]c2=O)c1	inconclusive: 106%
CN(Cc1ccccc1)C(=O)CCC(=O)N(C)Cc1ccccc1	inconclusive: 103%
O=C(c1ccc2c(c1)OCO2)N1CCN(c2ncccn2)CC1	inconclusive: 104%
O=C(c1cc2nc(-c3ccco3)cc(C(F)(F)F)n2n1)N1CCCc2ccccc21	inconclusive: 92%
O=[N+]([O-])c1cc2oc3c(c2c(C=NCc2ccccc2)c1O)CCCC3	active: 74%
COc1ccc(NC(=O)CSc2n[nH]c(C)c2[N+](=O)[O-])cc1	inconclusive: 89%
O=C(CSc1nnc(SCc2ccccc2)s1)N/N=C/c1c(Cl)cccc1Cl	inconclusive: 97%
CCOC(=O)c1c(NC(=O)COC(=O)c2ccc(O)cc2)sc(C(=O)N(C)C)c1C	inconclusive: 89%
O=C(Nc1cc(C(F)(F)F)ccc1-n1cnc2ccccc21)c1ccccc1	inactive: 101%
COC(=O)c1cc(C(=O)OCC(=O)N(C)C2CCS(=O)(=O)C2)cc([N+](=O)[O-])c1 (centres undefined)	inconclusive: 93%
Cc1cccc(NC(=O)COC(=O)c2cccc3c2C(=O)c2ccccc2C3=O)c1C	inconclusive: 93%

Compound	percent activity (GTP binding)
CCCn1c(SCC(=O)Nc2ccccc2N2CCCCC2)nc2c1c(=O)n(C)c(=O)n2C	inactive: 101%
CN(C)S(=O)(=O)Nc1ccccc1F	inconclusive: 94%
CC1CC(NC(=O)C2(C)CC2(Cl)Cl)CC(C)(C)C1 (centres undefined)	inconclusive: 106%
COc1ccc(CCNC(=O)CCCCCNc2nc(=S)[nH]c3ccccc23)cc1OC	inactive: 97%
O=c1oc2ccc3ccccc3c2cc1-c1nnc(-c2cccs2)o1	inconclusive: 94%
O=C(N/N=C/c1ccc([N+](=O)[O-])o1)c1cn(-c2ccccc2)nc1-c1ccccc1	inactive: 89%
c1ccc2oc(-c3ccc(Nc4nc(N5CCCCC5)nc(N5CCOCC5)n4)cc3)nc2c1	inconclusive: 94%
COc1ccc(/C(C)=N/NC(=O)c2sccc2-n2cccc2)cc1	inactive: 101%
O=C(CN1C(=O)C2C3C=CC(C3)C2C1=O)NC1CCCc2ccccc21 (centres undefined)	inconclusive: 109%
COc1ccc(C2=NOC(C(=O)NCc3ccco3)C2)cc1OC (centres undefined)	inconclusive: 95%
CCC(C)NC(=O)CN(C)S(=O)(=O)c1ccc2c(c1)c(=O)n(C)c(=O)n2C (centres undefined)	inconclusive: 102%
CC[C@@H](C)[C@H](NC(=O)C1CCN(C(=O)[C@@H](NS(=O)(=O)c2ccc(C)cc2)C(C)C)CC1)C(=O)O	inconclusive: 104%
C/C(=N\NC(=O)OC(C)(C)C)c1ccc(-n2ccnc2)cc1	inconclusive: 95%
Cc1cc2cc(C)c3nnc(SCC(=O)NCc4ccc5c(c4)OCO5)n3c2cc1C	inconclusive: 93%
Cc1ccc(-n2cccc2/C=C2\C(=N)N3N=C(c4ccco4)SC3=NC2=O)cc1	inconclusive: 84%
O=C(CSc1nnc(-c2ccncc2)n1Cc1ccco1)c1ccc(Cl)cc1	inconclusive: 103%
CC(C)CCOc1cccc(OCC(=O)O)c1	inconclusive: 429%
CN1C(=O)c2ccccc2C(C(=O)NCCCN2CCCC2)C1c1c[nH]c2ccccc12 (centres undefined)	inconclusive: 112%
COc1ccccc1NC(=O)c1c(N=Cc2ccccc2O)cnn1C	inconclusive: 92%
O=C(COc1ccc2ccccc2c1)Nc1ccc2c3c(cccc13)CC2	inconclusive: 91%
O=C(CSc1nc2ccccc2c(=O)[nH]1)N1CCCCCC1	inconclusive: 106%
O=S(=O)(Nc1cccc(-c2cn3cccnc3n2)c1)c1ccc(Cl)cc1	inconclusive: 89%
CN(CCNC(=O)C1(O)c2ccccc2NC(=O)N1c1ccccc1)Cc1ccccc1 (centres undefined)	inconclusive: 105%

Compound	percent activity (GTP binding)
N#Cc1c(-c2ccccc2)nc(SCC(=O)Nc2ccccc2)[nH]c1=O	inconclusive: 66%
CSc1nc(-c2ccccc2)cn1-c1ccc(NC(C)=O)cc1	inconclusive: 92%
Cc1ccc(C(=O)O/N=C/C2=C(Cl)c3ccccc3CC2)cc1	inconclusive: 90%
CN(C)S(=O)(=O)c1cc(NC2CC(=O)N(c3ccc(F)cc3)C2=O)ccc1Cl (centres undefined)	inconclusive: 94%
CC1(c2ccc(Cl)cc2)NC(=O)CS1 (centres undefined)	inactive: 94%
COc1cc(/C=C2/SC(=Nc3ccc(O)cc3)NC2=O)cc(OC)c1O	active: 69%
CSCCC(NC(=O)c1ccccc1C)C(=O)O (centres undefined)	inconclusive: 94%
O=C(O)c1ccc(Nc2nc(-c3cccnc3)nc3ccccc23)cc1	inconclusive: 71%
O=[N+]([O-])c1ccccc1/C=C/C=N/Nc1ccc(S(=O)(=O)Nc2ccc(Cl)cc2)cc1[N+](=O)[O-]	inactive: 92%
COC(=O)CSc1nc2c(c(=O)[nH]c(=O)n2C)n1CCC(C)C	inconclusive: 107%
O=C(NCc1cccs1)c1cc(-c2ccccc2)on1	inconclusive: 97%
Cc1ccc2sc(NNC(=O)c3cc(=O)c4ccccc4o3)nc2c1C	inactive: 81%
Cc1cc(NS(=O)(=O)c2ccc(Nc3nc(-c4sc(N)nc4C)cs3)cc2)no1	inactive: 80%
Cc1ccc2cn[nH]c2c1N	inconclusive: 88%
CCSc1nnc(-c2ccc(Cl)cc2)c2ccccc12	inconclusive: 94%
COc1ccccc1-c1nnc(SCC(=O)N2CCOCC2)n1-c1ccccc1	inconclusive: 103%
C#CCOCCOCCOCCNc1nc(N2CCN(C(=O)[C@H]([C@@H](C)CC)n3cc([C@@H](N)CC(C)C)nn3)CC2)nc(N2CCN(C(=O)[C@H](CCCCN)n3cc([C@@H](N)CO)nn3)CC2)n1	inactive: 98%
Cc1sc2nc(-c3cccnc3)nc(Cl)c2c1-c1ccccc1	inconclusive: 100%
CCn1cc(C(=O)N2CCN(c3ccccn3)CC2)c(=O)c2cc(S(=O)(=O)N(C)C3CCCCC3)ccc21	inactive: 90%
CCc1nnc(NC(=O)[C@@H](NC(=O)c2cc(OC)cc(OC)c2)C(C)C)s1	inactive: 97%
